The antibiotic and cytotoxicity screens of Wong et al. (2023)
Some of the results follow.

Each molecule was assayed on S. aureus RN4220 (assay: growth inhibition call (relative growth <= 0.2)). Details: 50 µM.

Growth inhibition call, inactive:
CNC(=O)C[C@@H]1CC[C@@H]2[C@H](COC[C@H](O)CN2C(=O)Nc2cccc(OC)c2)O1
C[C@@H]1CN([C@@H](C)CO)S(=O)(=O)c2ccc(Br)cc2O[C@@H]1CN(C)C(=O)c1ccc(F)cc1
Cl.[LiH]
CC(C)NC(=O)NCC[C@H]1CC[C@H](NC(=O)CN(C)C)[C@@H](CO)O1
CCC(=O)N(C)C[C@@H]1Oc2ncc(C#C[C@H](C)O)cc2C(=O)N([C@@H](C)CO)C[C@@H]1C
NC(=O)[C@H]1CCCNC1
C[C@H](CO)N1C[C@H](C)[C@@H](CN(C)C(=O)c2cc(Cl)cc(Cl)c2)OCc2ccccc2-c2ccccc2C1=O
C[C@@H]1CN([C@H](C)CO)C(=O)c2cccc(NC(=O)c3ccncc3)c2O[C@@H]1CN(C)S(=O)(=O)c1ccc(F)cc1
COCC(=O)N(C)C[C@@H]1Oc2cc(C#C[C@H](C)O)ccc2S(=O)(=O)N([C@H](C)CO)C[C@H]1C
COc1ccc(NC(=O)Nc2ccc3c(c2)C(=O)N([C@@H](C)CO)C[C@H](C)[C@@H](CN(C)Cc2ccc(C(=O)O)cc2)OCCCC[C@H](C)O3)cc1
C[C@H]1CN([C@@H](C)CO)S(=O)(=O)c2ccc(-c3cncnc3)cc2O[C@@H]1CN(C)C(=O)Cc1ccncc1
C[C@H](CO)N1C[C@H](C)[C@@H](CN(C)S(=O)(=O)c2ccccc2)Oc2ncc(-c3ccncc3)cc2C1=O
COc1ccccc1CNC(=O)C[C@@H]1C[C@@H]2c3cc(NC(=O)Nc4ccc(C(F)(F)F)cc4)ccc3O[C@@H]2[C@@H](CO)O1
Cc1noc(C)c1S(=O)(=O)N(C)C[C@H]1Oc2ccc(NC(=O)C3CCCCC3)cc2CC(=O)N([C@@H](C)CO)C[C@@H]1C
COc1ccc(CN(C)C[C@H]2Oc3c(NC(=O)c4ccc(-c5nccs5)cc4)cccc3C(=O)N([C@@H](C)CO)C[C@H]2C)cc1
C[C@@H](O)CNC(=O)C(=O)NC(C)(C)C
C[C@H](CO)N1C[C@H](C)[C@@H](CN(C)C(=O)Nc2ccccc2)Oc2ccc(NC(=O)CCCCCC(=O)Nc3ccccc3N)cc2C1=O
C[C@@H]1CN([C@@H](C)CO)C(=O)c2cccc(NS(C)(=O)=O)c2O[C@H]1CN(C)Cc1ccc(C(F)(F)F)cc1
C[C@H]1CN([C@@H](C)CO)C(=O)c2ccccc2-c2ccccc2CO[C@@H]1CN(C)C(=O)Nc1cccc(C(F)(F)F)c1
Cc1cc(NS(=O)(=O)c2ccc(N)cc2)no1
C[C@@H]1CCCCO[C@H](CN(C)C(=O)C2CCCCC2)[C@@H](C)CN([C@H](C)CO)C(=O)c2cc(NC(=O)CCC(F)(F)F)ccc2O1
O=C(N[C@@H]1CC=CC[C@H](CC(=O)N(CCO)Cc2ccccc2)C(=O)N[C@@H](c2ccccc2)COC1=O)OCC1c2ccccc2-c2ccccc21
CC(C)NC(=O)Nc1ccc2c(c1)C(=O)N([C@@H](C)CO)C[C@@H](C)[C@@H](CN(C)CC1CCCCC1)OCCCC[C@H](C)O2
Cc1noc(C)c1NC(=O)Nc1cccc2c1O[C@H](CN(C)S(=O)(=O)c1ccccc1)[C@H](C)CN([C@H](C)CO)C2=O
CO[C@H](CN(C)C(=O)Nc1ccc(C(F)(F)F)cc1)[C@H](C)CN(Cc1ccccc1Cl)[C@@H](C)CO
C[C@@H]1CN([C@@H](C)CO)C(=O)Cc2cc(NC(=O)Nc3ccc4c(c3)OCO4)ccc2O[C@H]1CN(C)Cc1ccc(C(=O)Nc2ccccc2N)cc1
CONC(=O)Nc1ccc(-c2sc3c(c2CN(C)Cc2ccccc2)c(=O)n(-c2ccccc2)c(=O)n3Cc2c(F)cccc2F)cc1
